Measured values as given in the supplement of paper PMC11125491.
± gives the standard deviation of the averaged measurements. Growth of baker's yeast expressing single-residue variants of Pneumocystis jirovecii dihydrofolate reductase in 8.8 or 44 µM methotrexate (about 75% and 90% inhibition of the wild type). Selection coefficient per generation; 0 = like wild type, above 0 = less sensitive, below 0 = more sensitive or loss of function. No active / inactive call per row; the paper calls resistant above 0.220 (8.8 µM) or 0.243 (44 µM) together with a significance test. At 44 µM about 15% of codons end with one read or none, so the lowest values are floors (replicate rank correlation 0.74; 0.94 at 8.8 µM).

B1: UniProt A0EPZ9; numbered along this chain (parent)
chain: MDWQKSLTLIVALTLSRGIGLKNDLPWKLKSDMMFFSRVTSGLLVTRSTGQMNVVLMGRKTWESLPAHSRPLKNRINVVISRQEVLDLGGGAYHARSLDDALALLSQIYDSTSKIQLNRVFVIGGGELCKAAMEHSRLNRIIATVIHNEVDCDVFFPIDFRSSQSCLPWRKQDHSVLEAWVGSKVPQGKINENGFIYEFEMWIRDI

Variants of: B1
Experiment: selection coefficient against synonymous wild-type codons (log2 per generation); higher = faster growth than wild type
Conditions: with Saccharomyces cerevisiae carrying the variant on a plasmid
Experimental: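 Pooled growth of yeast carrying single-residue variants of P. jirovecii dihydrofolate reductase (own DFR1 gene intact), two passages at 30 °C, three cultures, sequenced before and after. Codons with under 15 starting reads are left out; codons of one change are averaged.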

| Variant | selection coefficient against synonymous wild-type codons (log2) (methotrexate 8.8 µM) | selection coefficient against synonymous wild-type codons (log2) (methotrexate 44 µM) |
| --- | --- | --- |
| MDWQKSLTLIVALTLSRGIGLKNDLPWKLKSDMMFFSRVTSGLLVTRSTGQMNVVLMGRKTWESLPAHSRPLKNRINVVISRQEVLDLGGGAYHARSLDDALALLSHIYDSTSKIQLNRVFVIGGGELCKAAMEHSRLNRIIATVIHNEVDCDVFFPIDFRSSQSCLPWRKQDHSVLEAWVGSKVPQGKINENGFIYEFEMWIRDI [Q107H] | -0.0277 ± 0.044 | -0.129 ± 0.11 |
| MDWQKSLTLIVALTLSRGIGLKNDLPWKLKSDMMFFSRVTSGLLVTRSTGQMNVVLMGRKTWESLPAHSRPLKNRINVVISRQEVLDLGGGAYHARSLDDALALLSIIYDSTSKIQLNRVFVIGGGELCKAAMEHSRLNRIIATVIHNEVDCDVFFPIDFRSSQSCLPWRKQDHSVLEAWVGSKVPQGKINENGFIYEFEMWIRDI [Q107I] | -0.358 ± 0.067 | -0.263 ± 0.022 |
| MDWQKSLTLIVALTLSRGIGLKNDLPWKLKSDMMFFSRVTSGLLVTRSTGQMNVVLMGRKTWESLPAHSRPLKNRINVVISRQEVLDLGGGAYHARSLDDALALLSKIYDSTSKIQLNRVFVIGGGELCKAAMEHSRLNRIIATVIHNEVDCDVFFPIDFRSSQSCLPWRKQDHSVLEAWVGSKVPQGKINENGFIYEFEMWIRDI [Q107K] | 0.0169 ± 0.092 | 0.107 ± 0.096 |
| MDWQKSLTLIVALTLSRGIGLKNDLPWKLKSDMMFFSRVTSGLLVTRSTGQMNVVLMGRKTWESLPAHSRPLKNRINVVISRQEVLDLGGGAYHARSLDDALALLSLIYDSTSKIQLNRVFVIGGGELCKAAMEHSRLNRIIATVIHNEVDCDVFFPIDFRSSQSCLPWRKQDHSVLEAWVGSKVPQGKINENGFIYEFEMWIRDI [Q107L] | -0.287 ± 0.051 | -0.256 ± 0.14 |
| MDWQKSLTLIVALTLSRGIGLKNDLPWKLKSDMMFFSRVTSGLLVTRSTGQMNVVLMGRKTWESLPAHSRPLKNRINVVISRQEVLDLGGGAYHARSLDDALALLSMIYDSTSKIQLNRVFVIGGGELCKAAMEHSRLNRIIATVIHNEVDCDVFFPIDFRSSQSCLPWRKQDHSVLEAWVGSKVPQGKINENGFIYEFEMWIRDI [Q107M] | -0.205 ± 0.076 | -0.201 ± 0.17 |
| MDWQKSLTLIVALTLSRGIGLKNDLPWKLKSDMMFFSRVTSGLLVTRSTGQMNVVLMGRKTWESLPAHSRPLKNRINVVISRQEVLDLGGGAYHARSLDDALALLSNIYDSTSKIQLNRVFVIGGGELCKAAMEHSRLNRIIATVIHNEVDCDVFFPIDFRSSQSCLPWRKQDHSVLEAWVGSKVPQGKINENGFIYEFEMWIRDI [Q107N] | -0.0109 ± 0.093 | 0.0635 ± 0.21 |
| MDWQKSLTLIVALTLSRGIGLKNDLPWKLKSDMMFFSRVTSGLLVTRSTGQMNVVLMGRKTWESLPAHSRPLKNRINVVISRQEVLDLGGGAYHARSLDDALALLSPIYDSTSKIQLNRVFVIGGGELCKAAMEHSRLNRIIATVIHNEVDCDVFFPIDFRSSQSCLPWRKQDHSVLEAWVGSKVPQGKINENGFIYEFEMWIRDI [Q107P] | -0.551 ± 0.14 | -0.151 ± 0.062 |
| MDWQKSLTLIVALTLSRGIGLKNDLPWKLKSDMMFFSRVTSGLLVTRSTGQMNVVLMGRKTWESLPAHSRPLKNRINVVISRQEVLDLGGGAYHARSLDDALALLSRIYDSTSKIQLNRVFVIGGGELCKAAMEHSRLNRIIATVIHNEVDCDVFFPIDFRSSQSCLPWRKQDHSVLEAWVGSKVPQGKINENGFIYEFEMWIRDI [Q107R] | 0.0386 ± 0.019 | -0.00182 ± 0.14 |
| MDWQKSLTLIVALTLSRGIGLKNDLPWKLKSDMMFFSRVTSGLLVTRSTGQMNVVLMGRKTWESLPAHSRPLKNRINVVISRQEVLDLGGGAYHARSLDDALALLSSIYDSTSKIQLNRVFVIGGGELCKAAMEHSRLNRIIATVIHNEVDCDVFFPIDFRSSQSCLPWRKQDHSVLEAWVGSKVPQGKINENGFIYEFEMWIRDI [Q107S] | -0.0378 ± 0.037 | -0.0117 ± 0.14 |
| MDWQKSLTLIVALTLSRGIGLKNDLPWKLKSDMMFFSRVTSGLLVTRSTGQMNVVLMGRKTWESLPAHSRPLKNRINVVISRQEVLDLGGGAYHARSLDDALALLSTIYDSTSKIQLNRVFVIGGGELCKAAMEHSRLNRIIATVIHNEVDCDVFFPIDFRSSQSCLPWRKQDHSVLEAWVGSKVPQGKINENGFIYEFEMWIRDI [Q107T] | -0.00899 ± 0.044 | -0.0337 ± 0.16 |
| MDWQKSLTLIVALTLSRGIGLKNDLPWKLKSDMMFFSRVTSGLLVTRSTGQMNVVLMGRKTWESLPAHSRPLKNRINVVISRQEVLDLGGGAYHARSLDDALALLSVIYDSTSKIQLNRVFVIGGGELCKAAMEHSRLNRIIATVIHNEVDCDVFFPIDFRSSQSCLPWRKQDHSVLEAWVGSKVPQGKINENGFIYEFEMWIRDI [Q107V] | -0.238 ± 0.06 | -0.127 ± 0.13 |
| MDWQKSLTLIVALTLSRGIGLKNDLPWKLKSDMMFFSRVTSGLLVTRSTGQMNVVLMGRKTWESLPAHSRPLKNRINVVISRQEVLDLGGGAYHARSLDDALALLSWIYDSTSKIQLNRVFVIGGGELCKAAMEHSRLNRIIATVIHNEVDCDVFFPIDFRSSQSCLPWRKQDHSVLEAWVGSKVPQGKINENGFIYEFEMWIRDI [Q107W] | -0.421 ± 0.037 | -0.298 ± 0.1 |
| MDWQKSLTLIVALTLSRGIGLKNDLPWKLKSDMMFFSRVTSGLLVTRSTGQMNVVLMGRKTWESLPAHSRPLKNRINVVISRQEVLDLGGGAYHARSLDDALALLSYIYDSTSKIQLNRVFVIGGGELCKAAMEHSRLNRIIATVIHNEVDCDVFFPIDFRSSQSCLPWRKQDHSVLEAWVGSKVPQGKINENGFIYEFEMWIRDI [Q107Y] | -0.407 ± 0.14 | -0.094 ± 0.062 |
| MDWQKSLTLIVALTLSRGIGLKNDLPWKLKSDMMFFSRVTSGLLVTRSTGQMNVVLMGRKTWESLPAHSRPLKNRINVVISRQEVLDLGGGAYHARSLDDALALLSQAYDSTSKIQLNRVFVIGGGELCKAAMEHSRLNRIIATVIHNEVDCDVFFPIDFRSSQSCLPWRKQDHSVLEAWVGSKVPQGKINENGFIYEFEMWIRDI [I108A] | -0.466 ± 0.092 | -0.198 ± 0.074 |
| MDWQKSLTLIVALTLSRGIGLKNDLPWKLKSDMMFFSRVTSGLLVTRSTGQMNVVLMGRKTWESLPAHSRPLKNRINVVISRQEVLDLGGGAYHARSLDDALALLSQCYDSTSKIQLNRVFVIGGGELCKAAMEHSRLNRIIATVIHNEVDCDVFFPIDFRSSQSCLPWRKQDHSVLEAWVGSKVPQGKINENGFIYEFEMWIRDI [I108C] | -0.467 ± 0.14 | -0.146 ± 0.09 |
